# Assay results: the supplement of paper PMC12632987
# Over roughly 1,800 sequences, “median log2 fold change of GCK-ALFA target abundance (FLAG IP / Myc IP barcode read proportion)” has its median near 0.14; the lowest 2% begin near -0.84. The list shows a part of the results.
# T1: TRAF2, Q12933
# T1 chain: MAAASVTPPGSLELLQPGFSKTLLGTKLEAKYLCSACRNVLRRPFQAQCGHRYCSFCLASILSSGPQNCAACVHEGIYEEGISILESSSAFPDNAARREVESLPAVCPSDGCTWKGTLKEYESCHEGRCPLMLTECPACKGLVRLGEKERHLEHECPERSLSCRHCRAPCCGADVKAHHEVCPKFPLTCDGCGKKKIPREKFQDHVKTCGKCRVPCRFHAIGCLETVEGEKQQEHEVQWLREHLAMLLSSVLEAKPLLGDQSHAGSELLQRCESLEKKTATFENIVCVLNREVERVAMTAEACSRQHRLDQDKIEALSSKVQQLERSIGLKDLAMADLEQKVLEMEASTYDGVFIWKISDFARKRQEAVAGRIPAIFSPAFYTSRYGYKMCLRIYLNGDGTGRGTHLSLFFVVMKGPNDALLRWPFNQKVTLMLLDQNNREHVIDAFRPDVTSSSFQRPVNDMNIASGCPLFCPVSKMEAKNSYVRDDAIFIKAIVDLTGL
# B1: traf2_out_16_104_1394 (protein)
# chain: MEERKREFEEIIRRYEEIAERAGRLANELYKLYLKADPERKTALSDAMVEASELRREALLAAQEAREALETGGDLEEQRKRLEELEKRLEELEARVKELK
# B2: traf2_out_18_117_1788 (protein)
# chain: AEREALIAELEAIAARTGAAASKLGKLVLENWEKLTPEEKSEAFDVLADLSEVRREAQLLIHRITEEDLPVEEARAELARLRERADAALAAAEAKIKKIE
# B3: traf2_out_13_95_1144 (protein)
# chain: SKEVAEKINAIADEMLEKKDEILDKLEEELKKKGKLTPELEKALEEAKNSSISTAIHILKELSKKYPEIKEELDKAIEELEEIRREAGRRVAEILKEEEE
# B4: traf2_out_15_180_1314 (protein)
# chain: MTEEELKAKIDAANELADEVDDRLKALLAANPELTPEERQALRAASRSLLTLLFNGEEEDAAAALERVAAQLSPKAAALLRELYEWIKKKVAEIKKKLAA
# B5: traf2_out_16_104_1413 (protein)
# chain: AAAADAEFAAAIARLEKIADEANRLANEIYKLMEKASPEEKKKLSDLLVKASELRREALQAAQAIKAARAAGGDPAEAKATVKELEEKLKELKKELEKLK
# B6: traf2_out_17_162_1483 (protein)
# chain: AELEARLAALEARLEALEKELEELKKELEKLKEKSKEELTDLLVRASEARREALALAEEIRSLEPEIGAERAGALRDRALAIAEEFQRIANKIYKELEKK
# B7: traf2_out_11_155_730 (protein)
# chain: DAARAAQNAIVDFNLEVGDELAKEVEAIIEEIEKKDPEVAKELRKIFEKHKKYSYTSAARAVIDLLREKGYEEEAEKLEKALEEAQKRMSRKNQEIEAAL
# B8: traf2_out_16_177_1457 (protein)
# chain: DLAKVMDRLVILSYIRRAALRIVADDSPEAEEYLRKAREEAEAAGDEEGLALIERVRALAAEDTPEARAELRALAAEAQREAQRLADEAEALIKARAAAE
# B9: traf2_out_6_166_2476 (protein)
# chain: DEEILKRIREVVKEFSKYSAEDIIEAFEIIAKERSDERALLARQLASGVRQAQKAGLPIETILSAMADGWLALGVDPELILELLEEILKKVKEIQKEKEE
# B10: traf2_out_15_48_1342 (protein)
# chain: SVEELRKVASEIADEADATRDEVAAELRAIKPQASPEVAAQLDAIIAALAAGASLRDVLAQIQTVIPQASPEVAAQLQALADKIQATIKRMSKRMDEVLK
# B11: traf2_out_16_104_1390 (protein)
# chain: GAEKEKRFEKIKKELLEIAEKAGKIANEAYKLYEKASPEEKKKLSDLLVEASKLRREALLAAQEVEEWLKTGGDLEEAEKKLKKLKEELKKIEKKLKELK
# B12: traf2_out_11_131_662 (protein)
# chain: MDAVAMAESVAERVAERLALAATASPAERTRIARHSLDSIEALAEYLKSHVDKMTKEDIERAAKILRAAADAVLAADPAVAAEAAEVRKAIEELLKAAEE
# B13: traf2_out_18_3_1913 (protein)
# chain: SEEERKEISEKIDEIVDEATAKAREALDRGAAEHPEFKAEFERLRADLEAGAGPFGILDALAELFREAGDEEEAEEIEKFLREKRKELQELVDKYEELLK
# B14: traf2_out_18_167_1867 (protein)
# chain: SSELEEKYNEKSDKLVELSEIRRTLRLALEALKESRELARKIIEEALKKLPDSEVLKEALEKFETLSDEEIRAFLESTAEQLQKEMNKAYKELEKLRKEL
# B15: traf2_out_20_38_2017 (protein)
# chain: SEEEEEEEKEEKLIEHAKEAYDEAEKWVEELKAAGKTVEEIAEEAKALIRELLTAHGLEEEAEELIADVDRVLDSPDAERLIVRILARARTLVFQKELQK
# B16: traf2_out_16_62_1470 (protein)
# chain: EEEKKKLEEKADELIDTQAELRAAVTRFRLGEDVEGALATIAALAKKYGPTFQALLDAMRAALADPATHDEALAKADELAVEARTQLGKEALKAEEERKK
# B17: traf2_out_18_117_1791 (protein)
# chain: SEREELIERLEEIAERLGRAASELGTAVLENYDKLTPEEKSAAMDVLADLTAVRRRALELIHRIRTEDVPVEEARRELEELEKEAEAAIARAEARIAAIK
# B18: traf2_out_14_17_1298 (protein)
# chain: SVLEKLKEILELAKELLEEFPELRLSLTRLVRLAESAIVLAEMYEEDPSYKPLAIEGVRQLLREARELAEELEERSEEGREKAEEIARRAEEIIKELEEE
# B19: traf2_out_17_162_1568 (protein)
# chain: EELKKKLEELKKELEELKKELEEFKKKLPELPKMSYEELTDLLVEVSELKRRALELAEELKKLGKELGSEELEKLVKEAEEIAEELQRIANEIYKEIEKK
# B20: traf2_out_16_177_1449 (protein)
# chain: ELEKVMDRLVILSELKRAALLLVEGKEEEAEEELKEARELAEEAGDEEALEKLKEIEELAKENTPEAKKRLKELARELQKEAGKLAEEAEKLILERAKKE
# B21: traf2_out_17_35_1753 (protein)
# chain: MTPIEKERKIASELADEILAEVDKRNAEMEKILAETGDKQAVADYVKAYLAKHGETGELVDTLEEVLATKDDEELMATARAVVRRAAGRLMGPKYAERLK
# B22: traf2_out_11_169_837 (protein)
# chain: EEREKNRKINDFALELNDEAKKKLKEFAKELAKKAGLDVEEIDKIFEENKGKSFSYIAGKLIEYFKKKGKEDEAKAVEEKYEELKEEVNKKATAFIKELE
# B23: traf2_out_18_167_1872 (protein)
# chain: SAELKKKREELTDELVRYSTIRRALLLILEALKRSREEARRLLEEYVEKYPDSEVLREALEVFETKSDEEFRKFLEEKAEELQKEANEKYKELEELEKEE
# B24: traf2_out_19_16_1968 (protein)
# chain: MEEELERIRRELDEIERRVRELEKYFEENKETLTREELSDLLVELSELKRRAQELRERLLELEGVDEEERERLIRRAEEIIERAQRLMNEVVEKYLELLK
# B25: traf2_out_3_77_2277 (protein)
# chain: SSEAEAAAAALDEATTEAIASLAVLAINDPANAAKYREMAAKLHRAVAIAKEAGAEKEFLPLVKKLKEALDALNKGDKAAEAEIKKLLKEIEKKAEELKK
# B26: traf2_out_18_117_1778 (protein)
# chain: SRREELIERLKELAERLEEAASRLGKVFLENYEKLTPEEKSEIMDVLAELTEVRREAQLLIIKIENGEIPVEEAEERLKELEKRAEKAIEKAEKRIKEIE
# B27: traf2_out_17_162_1491 (protein)
# chain: SELEERKKELEKKLEELEKKLKELKKKLEKLEELSKEELTDLLVEVSELKREARELAEELKKLKEETGDPELEKLIKKAEELAEEAQKIANKIYKKLEEK
# B28: traf2_out_17_162_1605 (protein)
# chain: AELEATLAALEALLAELEAELKRLKEKLKRIKELSKEELSDLLVEASEARRRAREALEELERLRDRLPPELYAALTARFQALADEFQRIANKFYEELEKK
# B29: traf2_out_11_155_746 (protein)
# chain: EKRLKLLQEMNDKIMELFDKARKEADAIVEEAAKKHPEHAEKLKKLKEETKGFSYRSYILSYIEKFEELGLKEEAAKLKKLLEETQKKANEIVQKTEKEL
# Target: T1, TRAF2, Q12933
# Test: median log2 fold change of GCK-ALFA target abundance (FLAG IP / Myc IP barcode read proportion) (log2 ratio); each designed protein is fused to an ALFA-tag nanobody in HEK293 cells to bring the named protein to FLAG-tagged glucokinase (GCK); Myc marks an untargeted standard; higher = target protein stabilised (more abundant)
# Details: target protein: 3xFLAG-MCP-GCK-ALFA reporter; HEK293 landing pad (RPLP)
# Method in brief: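 Binders fused to an ALFA nanobody were recombined as a library into HEK293 landing-pad cells, which were induced with 2 μg mL^−1 doxycycline and then transfected to express a FLAG-tagged target and a Myc-tagged standard. After 48 h, circular RNA barcodes recovered by anti-FLAG and anti-Myc immunoprecipitation of lysates were reverse transcribed, amplified and sequenced. Each binder's target abundance is the median log2 ratio of FLAG to Myc barcode read proportions, from barcodes present at ≥10^−7 in both replicates, binders carrying ≥3 barcodes per replicate, a 10^−6 pseudocount and pooled replicates.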
row,Binder,median log2 fold change
1,B1,0.194
2,B2,0.0185
3,B3,-0.545
4,B4,0.309
5,B5,0.0972
6,B6,0.389
7,B7,0.541
8,B8,-0.0228
9,B9,0.0813
10,B10,0.255
11,B11,0.267
12,B12,0.243
13,B13,0.136
14,B14,0.166
15,B15,0.224
16,B16,0.0651
17,B17,0.133
18,B18,0.339
19,B19,0.8
20,B20,-0.242
21,B21,0.184
22,B22,-0.217
23,B23,0.106
24,B24,0.109
25,B25,0.291
26,B26,0.313
27,B27,-0.178
28,B28,-0.112
29,B29,-0.0198
